# Laboratory results: the BET-seq Pho4 binding data (Le et al. 2018)
# The other results are listed elsewhere or left out. These are noisy estimates, calculated here from bound and input reads.
# Molecular target: T1, Pho4 (S. cerevisiae) (UniProt P07270)
# T1 sequence: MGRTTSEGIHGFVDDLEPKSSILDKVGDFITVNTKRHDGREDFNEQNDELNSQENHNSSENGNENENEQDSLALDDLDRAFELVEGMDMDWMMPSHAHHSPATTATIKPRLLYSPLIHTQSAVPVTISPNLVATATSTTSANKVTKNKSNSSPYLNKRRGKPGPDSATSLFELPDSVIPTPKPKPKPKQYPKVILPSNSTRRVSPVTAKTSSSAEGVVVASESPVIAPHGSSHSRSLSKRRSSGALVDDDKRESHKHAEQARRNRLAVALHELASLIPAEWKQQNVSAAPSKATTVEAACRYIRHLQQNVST
# Assay: relative binding free energy (BET-seq); higher = weaker binding
# Conditions: reference: library average
row,Sequence,relative binding free energy
1,TCAAGCACGTGGCGTT,-0.01 kcal/mol
2,AGAGGCACGTGAGGAA,0.07 kcal/mol
3,CGTTTCACGTGACTGG,0.3 kcal/mol
4,GATAACACGTGTGTAT,0.13 kcal/mol
5,GGGTGCACGTGTGGCG,0.16 kcal/mol
6,TGTAGCACGTGAAGGC,0.09 kcal/mol
7,TGCGGCACGTGGATGA,-0.08 kcal/mol
8,AGTAACACGTGATTTG,0.13 kcal/mol
9,TGGGTCACGTGTTTCA,0 kcal/mol
10,AGGCGCACGTGGAATG,0.05 kcal/mol
11,GCTGCCACGTGTTGTT,-0.04 kcal/mol
12,GAAGTCACGTGTTTTA,0.04 kcal/mol
13,CTGATCACGTGGTGGC,0.13 kcal/mol
14,GTTGCCACGTGAGCGG,0.15 kcal/mol
15,ACTATCACGTGGTTTA,0.19 kcal/mol
16,TTTTTCACGTGATCTA,0.27 kcal/mol
17,TGGCGCACGTGGTTTT,-0.16 kcal/mol
18,CGGTCCACGTGGGGGG,-0.18 kcal/mol
19,TTACTCACGTGGCGTT,0.16 kcal/mol
20,TAGGTCACGTGTGCTG,0.07 kcal/mol
21,TTTTGCACGTGATTCG,0.01 kcal/mol
22,TGTGTCACGTGCCTGA,0 kcal/mol
23,GGTGTCACGTGGACTT,0.02 kcal/mol

row,Sequence,relative binding free energy
1,CTGCTCACGTGTGTTG,0.25 kcal/mol
2,TAGTACACGTGATGTG,0.17 kcal/mol
3,GGCAGCACGTGGGCGT,-0.16 kcal/mol
4,GTTCACACGTGAATTT,0.48 kcal/mol
5,ACGCTCACGTGTTGGT,0.23 kcal/mol
6,TGGTGCACGTGTTACG,-0.1 kcal/mol
7,CTGGGCACGTGTGCGA,-0.02 kcal/mol
8,CGGTACACGTGGGCGA,0.08 kcal/mol
9,ATAGTCACGTGGAGGA,0.12 kcal/mol
10,AGAGTCACGTGGGCGA,-0.07 kcal/mol
11,ATTGGCACGTGTTGTG,-0.09 kcal/mol
12,ATAGGCACGTGTTGCG,-0.06 kcal/mol
13,TCTGCCACGTGTGGGG,-0.1 kcal/mol
14,TAAGGCACGTGAGTCT,0.01 kcal/mol
15,ATGTGCACGTGCAGAT,0 kcal/mol
16,ATTTGCACGTGTGGAT,0.04 kcal/mol
17,GGAAACACGTGATTGG,0.17 kcal/mol
18,GGCCGCACGTGTGGTT,0.05 kcal/mol
19,GTGGGCACGTGTTGAC,-0.21 kcal/mol
20,CGCAGCACGTGGTGTA,-0.11 kcal/mol
21,CGGTGCACGTGTTGAG,0.07 kcal/mol
22,TCGTCCACGTGGAGGT,0.05 kcal/mol
23,GGTGTCACGTGATATG,0.25 kcal/mol

row,Sequence,relative binding free energy
1,AGCGGCACGTGAGGTA,0.22 kcal/mol
2,AGTAGCACGTGCGATT,-0.02 kcal/mol
3,TCGGCCACGTGATGGT,0.15 kcal/mol
4,TGAAACACGTGGCTGG,-0.03 kcal/mol
5,CTCTACACGTGTGGGG,0.08 kcal/mol
6,GCTTACACGTGTGTGG,0.11 kcal/mol
7,CTTTTCACGTGTGTTC,0.32 kcal/mol
8,TGTGCCACGTGGGGCA,-0.31 kcal/mol
9,AATGGCACGTGGGCTT,-0.16 kcal/mol
10,GAGGGCACGTGTATAG,-0.11 kcal/mol
11,CTAAGCACGTGTGGTA,-0.06 kcal/mol
12,GCTTTCACGTGGGCGT,0.26 kcal/mol
13,TTCGGCACGTGGATAG,-0.14 kcal/mol
14,TTGATCACGTGGAGGT,0.03 kcal/mol
15,AGAAACACGTGGAGGT,0.22 kcal/mol
16,TGCTGCACGTGAGGGG,0.21 kcal/mol
17,TTTAACACGTGGTTGG,0.04 kcal/mol
18,TGTACCACGTGGGATG,-0.18 kcal/mol
19,TATTGCACGTGAGGTA,0.1 kcal/mol
20,GTATTCACGTGGTATC,0.21 kcal/mol
21,ATGTACACGTGGGGTC,-0.11 kcal/mol
22,TAGGGCACGTGTACGT,0.04 kcal/mol
23,ATGGTCACGTGGTAAC,0.06 kcal/mol

row,Sequence,relative binding free energy
1,TAAGACACGTGGGGAG,-0.03 kcal/mol
2,AATGGCACGTGTTGCA,0.03 kcal/mol
3,CGGGACACGTGGGGTT,-0.08 kcal/mol
4,GGGTACACGTGGCCTG,-0.03 kcal/mol
5,CGTAGCACGTGCTGGT,-0.13 kcal/mol
6,CTGAACACGTGGGGTG,-0.31 kcal/mol
7,TTCTTCACGTGCTTTA,0.4 kcal/mol
8,GGGAGCACGTGTTCGA,-0.07 kcal/mol
9,TTGGACACGTGAGGTC,0.2 kcal/mol
10,GAGGTCACGTGTTGAA,0.27 kcal/mol
11,TTTGGCACGTGGCTAG,-0.22 kcal/mol
12,TGTTTCACGTGTAATC,0.25 kcal/mol
13,GGACTCACGTGTTGGG,0.15 kcal/mol
14,TTGAGCACGTGTAGAG,-0.06 kcal/mol
15,AGGGACACGTGATTGA,0.17 kcal/mol
16,GTGTTCACGTGCTTGA,0.32 kcal/mol
17,TAATTCACGTGTTAAA,0.17 kcal/mol
18,TTGTACACGTGAACTG,0.15 kcal/mol
19,CTGATCACGTGGGAGT,0.06 kcal/mol
20,TTAATCACGTGAAAGG,0.4 kcal/mol
21,CGTTACACGTGTAGTA,0.2 kcal/mol
22,ATATACACGTGTGTTA,-0.12 kcal/mol
23,ATTTGCACGTGAGGTA,0.16 kcal/mol

row,Sequence,relative binding free energy
1,GGTTCCACGTGCTTTT,0.1 kcal/mol
2,ATGGGCACGTGGTGCC,-0.23 kcal/mol
3,AATAGCACGTGGATTT,0.07 kcal/mol
4,GTGAACACGTGAGGGA,0.4 kcal/mol
5,GTTAGCACGTGAGTGG,0.22 kcal/mol
6,TGTGACACGTGGAGGA,-0.04 kcal/mol
7,ATGGGCACGTGTGAAA,0.01 kcal/mol
8,AGGCGCACGTGGGGGC,-0.26 kcal/mol
9,TAAGTCACGTGGTGCC,0.03 kcal/mol
10,TGTAACACGTGACGTG,0.03 kcal/mol
11,TTAAGCACGTGGTCAT,-0.18 kcal/mol
12,TTAGTCACGTGCTGAT,0.21 kcal/mol
13,GGTGGCACGTGGGGGA,-0.17 kcal/mol
14,CATGGCACGTGTCTGG,-0.09 kcal/mol
15,AAGTCCACGTGATTTT,0.4 kcal/mol
16,TCATGCACGTGTATGT,-0.06 kcal/mol
17,CAGTACACGTGTGGGT,0.09 kcal/mol
18,GAGGGCACGTGATATG,-0.09 kcal/mol
19,ACTGTCACGTGGTGCG,-0.02 kcal/mol
20,TTAGACACGTGTCGTT,0 kcal/mol
21,AAAGGCACGTGGAGGT,-0.13 kcal/mol
22,AATTTCACGTGGGAAA,0.29 kcal/mol
23,ATGCGCACGTGTGTAG,-0.1 kcal/mol
